Measurements taken from PubChem BioAssay AID1963576 (National Center for Advancing Translational Sciences (NCATS), 2024).
In all, about 46,000 compounds went through this assay and about 60 (0.1%) were called active. About 3% were inconclusive and are not listed. Calls follow the shape of the dose curve; as a rule, active = well fitted inhibition curve with a large enough effect; inconclusive = small, poorly fitted or top-dose-only effect; inactive = no such curve, though single readings can be large or run the other way. This is one part of the list.

Experiment: Primary qHTS assay for Inhibitors of ovarian cancer metastasis using an organotypic tumor microenvironment (TME) model. Also: nearly all actives have a fitted effect of over 65% in size.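 As to activity change, negative = inhibition: plate controls were DMSO wells for no effect and tomatine positive control wells for full effect.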
Details: SKOV3ip1-GFP adhesion/invasion on 3D omental model, fluorescence; series mostly up to 45.8 µM; activity change, negative = inhibition: at the top concentration
How it was run: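 Adhesion/invasion was scored as fixed GFP-labeled SKOV3ip1 cell counts (488/509 nm), normalized to DMSO and tomatine controls. Cancer cells in serum-free medium, with four compound doses (0.36-46 umol/L), sat 2 hr at RT then 16 hr at 37 C on a 48 hr fibroblast/mesothelial/ECM culture.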

outcome, inactive:
CCOC(=O)c1ccc(N2CCN(c3ccc(F)cc3)CC2)c(NC(=O)Nc2ccc(CC)cc2)c1, CCOc1ccc(S(=O)(=O)N(CC(=O)NCCc2ccc(OC)cc2)c2ccccc2)cc1, Cc1cc(C)c(/C=C/c2onc(C)c2S(=O)(=O)N2CCC(C(=O)Nc3cccc(C)c3C)CC2)c(C)c1, Cc1ccc(S(=O)(=O)N2CCCC2C(=O)Nc2ccc(Br)cc2)cc1 (stereo not given), Cc1ccc2oc(C(=O)N(Cc3sccc3C)C3CCS(=O)(=O)C3)c(C)c2c1 (stereo not given)

Activity change, negative = inhibition, inactive:
CCOc1ccc(C(=O)Nc2ccc(NC(=O)c3ccccc3)cc2)cc1Br 7.45%, Cc1ccc(S(=O)(=O)N2CCCc3cc(NS(=O)(=O)c4ccccc4)ccc32)cc1 -22.7%, Cc1ccc(OCC(=O)N(Cc2nc(-c3ccccc3)no2)C(C)C)cc1C -2.57%, COC(=O)c1ccc([C@H]2Nc3ccc(S(=O)(=O)Nc4ccc(F)cc4)cc3[C@H]3C=CC[C@H]32)cc1 13.6%, COc1ccccc1N1CCN(c2c(CN3CCCC3)c(=O)oc3ccccc23)CC1 -2.24%, COc1ccccc1-c1noc(CSc2nnc(-c3ccccc3)n2-c2ccc(C)c(C)c2)n1 -7.72%, Cc1cc(OCC(=O)Nc2sc3c(c2C#N)CCC(C)C3)ccc1Cl (stereo not given) 1.03%, Cc1ccc2[nH]c(=O)c3cc(C(=O)NCc4cccc(Cl)c4)sc3c2c1 8.92%, CCOC(=O)CNC(=O)Nc1cc(C(=O)NCc2ccc(C(C)C)cc2)ccc1N1CCCC1 3.96%, O=C(C1CCCN(S(=O)(=O)c2cccc3nonc23)C1)N1CCN(c2cccc(C(F)(F)F)c2)CC1 (stereo not given) 46.8%, O=C(CSc1ncc(-c2ccc(Cl)cc2)[nH]1)Nc1ccccc1F 13.8%, CCOc1ccc(C(=O)c2cn(Cc3cccc(OC)c3)c3cc4c(cc3c2=O)OCO4)cc1 -3.19%, CCOC(=O)c1c(C)oc2nc(C)nc(N(C)Cc3ccccc3)c12 0.39%, CC(=O)c1ccc(NC(=O)CSc2nc(-c3ccccc3C)nc3c2c(=O)n(C)c(=O)n3C)cc1 1.6%, CON=C(C(=O)N[C@@H]1C(=O)N2C(C(=O)O)=C(Cn3ccc(=N)n3CCO)CS[C@H]12)c1csc(N)n1 -9.36%, O=c1cc(-c2ccccc2)n2c(SCc3ccccc3Cl)nnc2[nH]1 10.2%, COc1ccc(-n2c(=O)c3c4c(sc3n(C)c2=O)CN(C(C)=O)CC4)cc1 3.95%, CCOc1ccc(Nc2c(S(=O)(=O)c3ccc(C)cc3)cnc3ccc(F)cc23)cc1 -28.3%, COc1cccc(CNC(=O)c2nc(Cn3nc(C)c(Br)c3C)no2)c1 -13.6%, COc1ccccc1CNC(=O)C(=O)NCC(c1cccs1)S(=O)(=O)c1cccs1 (stereo not given) -6.56%
